According to the supplement of paper PMC11417369:
± gives the standard deviation of the averaged measurements. Some of the results follow.

System: PfAP2-I AP2 domain 3 (GST-tagged)
Assay: gcPBM binding intensity (ln(normalized median fluorescence intensity)); higher = stronger DNA binding
Procedure, shortened: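 GST-tagged P. falciparum DNA-binding domains produced in E. coli were incubated for 1 h on an Agilent 4 × 180k array of primer-extended double-stranded 36-bp intergenic genomic probes with negative controls. Binding intensity is the highest Masliner-normalised natural-log median intensity across replicate spots of either probe orientation, with bound protein detected by Alexa488 anti-GST antibody at 488 nm.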

Sequence	gcPBM binding intensity (ln)
TTTTATGTTTTTTTTATAAATATTAAAATTCTATAT [CACACA_negctrl_site1477]	7.71 ± 0.23
ATATATATATATAATTGTACATTTTTAACCTTAACA [XGTACX_site7910]	9.28 ± 0.51
AATGTTAAAAATGAAAGTACATGGAATTTATTATTT [XGTACX_site4095]	7.78 ± 0.58
ATATTGTTATATGTTTGTACATATTTTTTATATTTT [XGTACX_site6834]	7.7 ± 0.64
AAAAAAAAAAAATACACACACACATATAAATATGTA [CACACA_site6900]	7.6 ± 0.18
GTTTATATATGCTTATAATTTTCAATTGTTTTACAA [TGCATGCA_negctrl_site384]	7.79 ± 0.57
TGATTCAATTTATGCACACTAAAAATTAATTATATT [CACACA_site271]	9.65 ± 0.23
TTTTTTTTTTATACATGTACTTAAAAGTAGCACCTT [XGTACX_site1855]	8.98 ± 0.099
GACATTAATTATTTGACACACGACTGGGTGGTGATT [CACACA_site306]	7.61 ± 0.68
TTTGTAAAAGGTCATACACACATATTCAAAAGAAGT [CACACA_site2947]	7.79 ± 0.76
ATTATATATACAACAAGTACAAAAGAAAAATATTAT [XGTACX_site2914]	7.88 ± 0.62
TATAAATACATCCTATACTTCTCTTTTACAGTTTTA [CACACA_negctrl_site1283]	7.71 ± 0.54
TTTTTATGTTATCAAATAAATATAAATATAATTCAT [CACACA_negctrl_site1522]	7.3 ± 0.35
TAAAGAGTTACCATTTGTACTTACGCACACATAAAA [XGTACX_site3145]	8.37 ± 0.35
TATATTTGAAATATATGTACTTATAATACAGTTTAA [XGTACX_site8039]	7.6 ± 0.38
TTCCTTCAAAATTTAAGTAATAAGATAAAAATATAA [CACACA_negctrl_site1696]	7.54 ± 0.61
CACAGATAAATTAACACACACACACGGATATTTATA [CACACA_site7788]	8.03 ± 0.26
ATGTATACAAATATATGTACGTATGTTCTCTTCTTT [XGTACX_site7865]	7.81 ± 0.59
GGTAATAAACAATGAAGTACGTAAAGGTAAAATATT [XGTACX_site2647]	8.46 ± 0.77
TTATTAGGTATATATGCACACAATACCCAAAACAAC [CACACA_site4221]	9.595 ± 0.021
TATTTTCAAAAATATACACACACATAAATATATGTA [CACACA_site8160]	7.54 ± 0.38
ATTTAATTTTCATGATGTACTATAGTTTAATGCACA [XGTACX_site1624]	11.6 ± 1.1

Sequence	gcPBM binding intensity (ln)
TAATAATCAAACTATACACACATAAATAGATATATA [CACACA_site6220]	7.53 ± 0.52
TGTAAATATAAATGTAATAAATATGTAAAAATAAAT [XGTACX_negctrl_site171]	7.74 ± 0.45
TTATATGTATTTCTTTGTACACATTTTTATATATAT [XGTACX_site1462]	8.21 ± 0.3
TATCATTTTTTTAAAACACACATAATAATATAAATA [CACACA_site2845]	7.82 ± 0.31
TAAATTTTATAAATCTGTACATATGAGCAAGAACAT [XGTACX_site7400]	8.43 ± 0.3
ATTATGCACCAACACACACACACACCCCTAAAAAAT [CACACA_site2568]	11.4 ± 0.79
CACTTCAAAAAAATATGTACACATATATATATATAT [XGTACX_site3075]	9.47 ± 0.5
TTATTTATTTTTTCATGTACTTAAATATATTAATGT [XGTACX_site5804]	7.92 ± 0.54
ATCTATATTTTTATAACACACAATGATGTACATTAC [CACACA_site6633]	8.11 ± 0.7
TAGAATAATCTATAAACACACAAACCCAACAAAAGA [CACACA_site6132]	8.39 ± 0.38
TGAAAATATTTTATATGTACATATATTATCAATACA [XGTACX_site92]	7.79 ± 0.28
AATATATAATTAATTGCACACCTTGTCACGCCAAAA [CACACA_site1174]	9.58 ± 0.11
TATTAATACAGACACACACACACACTAATTAAAATA [CACACA_site7967]	8.1 ± 0.29
ATTTACCCTTGCCATGCACACTTTTTTATAGAAAAT [CACACA_site5857]	8.95 ± 0.44
GAATGAATACGTTTTACACACTTGAATATAATTTCA [CACACA_site989]	7.78 ± 0.64
ATATATAAATTTAATACACACCCAAAAAAAAAAAAA [CACACA_site7719]	8.21 ± 0.6
AAAATTATAAAATGGGCACACATGAAGATTGTAGTA [CACACA_site2226]	7.87 ± 0.68
TAAATATATAAACACACACACATTAATACAGATATT [CACACA_site5851]	7.72 ± 0.54
TATATATTTTTATGCACACACAAAGAAAATTTTCCT [CACACA_site2863]	10.3 ± 0.47
AAAAAAAATTAAAATAAAATATAAATATAAAATATA [GTGCAC_negctrl_site714]	7.26 ± 0.24
AAAGTATAACGGATACCATTTATGTGATTATTTTGT [XGTACX_negctrl_site188]	7.43 ± 0.69
AAATATATATAAGCGTGTACACATTCTGAGTGTTGT [XGTACX_site1088]	8.07 ± 0.57

Sequence	gcPBM binding intensity (ln)
TATCGTTTTATTCGGTTGCACCAAAAAAATAAAATA [GTGCAC_site9408]	9.33 ± 0.2
ATAATAAAAATAAAATGTACATACATAAATATATAT [XGTACX_site6228]	7.87 ± 0.68
AGCTATAATAAATATACACACATATATAAATATGTA [CACACA_site6583]	7.38 ± 0.62
ATATATATATAATAAGTGCAAAAATAATGACCTATA	9.845 ± 0.007
TACCAAAAGAAACACACACACAAAATATATAAATAT [CACACA_site1869]	7.7 ± 0.45
TCCCATATATATATATATATATATATATATAATAAT [TGCATGCA_negctrl_site41]	8.53 ± 0.42
ATACTTTTAATATGCACATGCAAATATGAAATATCG [TGCATGCA_site603]	9.22 ± 0.39
TTTGGCTAGTCAAGTTGTACAAAAAAAAAAAAAAAA [XGTACX_site8382]	8.03 ± 0.54
AATTTATATTAAAATTGTACATTTCTTCTATAATAC [XGTACX_site8639]	7.74 ± 0.66
AATATATTTAATGAGTGTACATTATTTATTATTATT [XGTACX_site6889]	7.7 ± 0.49
AAATAAAAAAAATAAAAGCAATCATAATAAAAATCT [CACACA_negctrl_site161]	7.62 ± 0.68
TGTATGTATTTGTGTAGTACGCATAAGTAATAAAAC [XGTACX_site6704]	8.55 ± 0.4
CCTATATAATATATTTGTACTTAATAATTAAAGTGT [XGTACX_site5151]	7.95 ± 0.25
TATATATATATATATTGTACATATGTAACCTTTTAA [XGTACX_site3914]	9.38 ± 0.4
ATAAGATTAAACATTGCACACAGAAATATATTTTCT [CACACA_site8743]	8.57 ± 0.44
TTTTTTAGATTACATAAATATAAATATAAATATATA [GTGCAC_negctrl_site459]	7.26 ± 0.36
TCAACTATCAATATAGTGCATTTTTTTTGGAAAACC [GTGCAC_site9927]	9.36 ± 0.071
TATCAAAATTAGTATACACACAAAATTAATCAAATA [CACACA_site7117]	7.45 ± 0.51
CATTTTGTTTTAAAGTGTACATTATGTAATATAAAA [XGTACX_site647]	7.84 ± 0.43
ATTTATATTACCCTTGCATGTAGGTGCAATTTTTTT [TGCATGCA_site757]	10.64 ± 0.085
TTTTTATAGGTAAAAACACACGCTAAAAATAATTAA [CACACA_site3731]	7.67 ± 0.69
AGGTACTTTTTTAAAACACACATATAATAAATACAC [CACACA_site4730]	8.59 ± 0.16

Sequence	gcPBM binding intensity (ln)
AATAAATATATATTCACACACAAACATATATATATA [CACACA_site4023]	9.22 ± 0.13
TTTATAATTTATATCACACACATATATATATAGTAA [CACACA_site8]	7.67 ± 0.44
AAATAAATAAATAAATAAACAAATATGTATAAATGG [XGTACX_negctrl_site153]	7.81 ± 0.45
ATATATATATATAAAAGTACTTATTTTTATTTACAT [XGTACX_site4299]	9.07 ± 0.35
GAGAGTACCTATATTGCATGCAGACTTTTTAAATAT [TGCATGCA_site564]	8.1 ± 0.71
TAAAATAAAAATTTATGTACACATAAAAAAACAAAA [XGTACX_site1112]	7.97 ± 0.62
GTTAAAATAATATGGTGTACAAATATATAAGTTCAT [XGTACX_site3262]	8.14 ± 0.65
TTTTTTTTTTTTTGTAGTACATTATGTATATTTTTA [XGTACX_site7810]	8 ± 0.51
TTAATAAGAGAGCAATAGGTGGACTGTTTCTTTTAT [CACACA_negctrl_site1239]	7.84 ± 0.6
GTGCCCTTTTTAATAACATGCAAATAACATATTTAT [TGCATGCA_site709]	8.55 ± 0.28
AAAAAAAAAAAAAACACACAAACATCAAATTATTAT [CACACA_site1838]	8.13 ± 0.59
AATTAGATGGATAAATGTACATATGTGAATATATTT [XGTACX_site85]	7.95 ± 0.62
ATATAACACAAGGGCACACATATACCTTTCCTTTTT [CACACA_site412]	8.44 ± 0.54
TTTATATTATACGCACTAATATATATATATATATAT [TGCATGCA_negctrl_site47]	9.66 ± 0.35
GTAATATATATTAAGTAATAGTTTATCTTAGGAAAA [TGCATGCA_negctrl_site302]	7.42 ± 0.67
ATCTTATATCGTAGAGATTTTTTTTTTTTTTCATTT [XGTACX_negctrl_site140]	7.21 ± 0.46
AATTTCTTCTTAGGGTGTACAATTTGACATAAGGAA [XGTACX_site1773]	8.23 ± 0.28
TACTTATATTGAAATGGTACAGATAAAAAAAAAAAA [XGTACX_site1407]	8.02 ± 0.59
TTTTGTAATGTGAATATTTGTATATTATTTGTATAT [CACACA_negctrl_site1677]	7.61 ± 0.5
ACATTCTATCTAAGTACACACATTAATTTTTTTTTT [CACACA_site4106]	8.12 ± 0.49
TAATATTTTTTGTGTACACATATATATATATATATA [CACACA_site5504]	9.35 ± 0.34
AATTTACATATATATTGTACATTTATGTATATATAT [XGTACX_site4186]	8.1 ± 0.47
